This note sets out measurements from PubChem BioAssay AID330 (DTP/NCI, 2004).

Inconclusive results and toxic doses are left out. Not every entry of the source has a single result; some have several. They are shown here; other results are not. There may be further records. Values that stand side by side differ for a reason that is not stated; dose, time, organism, isomer or construct need not be as stated for each record.

The test system of this assay is P388 leukemia ip, CD2F1 mice, survival T/C. The assay is described as follows: NCI In Vivo Anticancer Drug Screen. Data for tumor model P388 Leukemia (intraperitoneal) in CD2F1 (CDF1) mice. The following applies: endpoint: median survival time; dose: 5.0 mg/kg/injection; schedule: Q01DX001 (ip); vehicle: saline; higher = longer survival.

For the compound `COc1cccc2c1C(=O)c1c(O)c3c(c(O)c1C2=O)C[C@@](O)(C(=O)CO)C[C@@H]3OC1CC(N)C(O)C(C)O1` (stereo partly specified), the T/C was 113 % of control and 150 % of control.
